Measured values reported in PubChem BioAssay AID1671194 (National Center for Advancing Translational Sciences (NCATS), 2021).
About 240 (0.17%) of roughly 140,000 compounds were called active. Inconclusive means that the source gave no clear call. Such entries were picked first, then a sample of the others. The call rests on the fitted dose curve; in most records, active means well fitted inhibition curve with a large enough effect; inconclusive means small, poorly fitted or top-dose-only effect; inactive means no such curve, though single readings can be large or run the other way. Potencies of inconclusive entries are doubtful fits and often do not repeat.
Potency means the concentration at half of the fitted maximal effect; tags describe the fitted curve by direction and shape.

Test: Primary qHTS assay for inhibitors of alpha-synuclein gene (SNCA) expression; further: nearly all actives have a fitted effect of over 45% in size
Settings: HEK-293 SNCA-luciferase knock-in, luminescence, 24 h; series mostly up to 57.2 µM
For `Cc1ccc(S(=O)(=O)N2CC(c3noc(-c4cccnc4)n3)C2)cc1Cl`, the Potency was “inactive”.
For `CON(C)C(=O)N1N=C(c2cc(F)ccc2F)S[C@]1(CCCN)c1ccccc1`, the Potency was inconclusive: 0.0019 µM [inhibitor, full curve, poor fit].
In the case of `CS(=O)(=O)NC1CCCN(c2cc(N3CCCC3)ncn2)C1` (centres undefined), the Potency is reported as “inactive”.
For `Cc1c(Cl)cccc1NC(=O)C1CCCN(C(=O)c2cnn(-c3ccccc3)c2-n2cccc2)C1` (centres undefined), the Potency was inconclusive: 39.8 µM [inhibitor, single point].
With `O=C(CN1C(=O)NC(c2ccc(Cl)cc2)C2=C1COC2=O)Nc1ccc2c(c1)OCO2` (centres undefined) the Potency was inconclusive: 8.91 µM [inhibitor, full curve, poor fit].
In the case of `Cc1cccc(C(=O)N2CCCCCC2c2nnc(-c3ccccc3)o2)c1` (centres undefined), the Potency is reported as “inactive”.
In the case of `CCn1ncc(CN(C)C(=O)CC2C(=O)NCCN2C(C)C)c1C` (centres undefined), the Potency is reported as “inactive”.
For `O=C(NC1CC1)c1nc2cccnc2n(CCc2ccccc2)c1=O`, the Potency was inconclusive: 63.1 µM [inhibitor, single point].
In the case of `COc1ccc(-c2cc3c(=O)n(CCNC(=O)c4ccc5c(c4)OCO5)ccn3n2)cc1`, the Potency is reported as “inactive”.
In the case of `O=C(Nc1ccc(-c2nc3ccccc3s2)c(O)c1)c1ccc(Br)cc1`, the Potency is reported as inconclusive: 1.78 µM [inhibitor, single point].
With `Cc1ccc2c(c1)N(C(=O)CCC(=O)Nc1ccc(F)cc1F)CC(C)O2` (centres undefined) the Potency was “inactive”.
With `CC(C)(C)c1ccc(C(=O)N2CCC(c3noc(-c4ccc(S(=O)(=O)N5CCCC5)cc4)n3)CC2)cc1` the Potency was inconclusive: 1.41 µM [inhibitor, partial curve, poor fit].
For `CCN(CC)S(=O)(=O)c1ccc(NC(=O)c2ccc3c(=O)n4c(nc3c2)CCCCC4)cc1`, the Potency was inconclusive: 3.16 µM [inhibitor, partial curve, poor fit].
In the case of `COc1cc(Cl)ccc1C(=O)N1CCN(C(=O)c2nnn3c2COC(c2ccccc2)C3)CC1` (centres undefined), the Potency is reported as inconclusive: 28.2 µM [inhibitor, partial curve, poor fit].
For `CCOc1ccccc1N(C)C(=O)c1cc(S(=O)(=O)NCCc2ccc(Cl)cc2)ccc1F`, the Potency was inconclusive: 12.6 µM [inhibitor, single point].
With `Cc1ccc(Nc2ccnc(N3CCC(NC(=O)NC(C)C)CC3)n2)cc1` the Potency was “inactive”.
With `CC(C)C[C@@H]1N[C@H](C(=O)NCCOc2ccccc2)Cc2cn(C)c3cccc1c23` the Potency was inconclusive: 56.2 µM [inhibitor, single point].
For `CN(C)c1ccc(-c2nnc([C@H]3CCN(Cc4ccco4)C3)o2)cc1`, the Potency was “inactive”.
With `Cc1ccccc1S(=O)(=O)N1CCCC(Cc2noc(-c3cccnc3)n2)C1` (centres undefined) the Potency was inconclusive: 4.47 µM [inhibitor, single point].
In the case of `O=C(CSCc1ccc(F)cc1)N1CCc2c([nH]c3ccccc23)C1c1ccc(F)cc1` (centres undefined), the Potency is reported as inconclusive: 28.2 µM [inhibitor, single point].
In the case of `Cc1cccc(N(C)C(CNS(=O)(=O)c2ccccc2)c2ccccc2)c1` (centres undefined), the Potency is reported as inconclusive: 39.8 µM [inhibitor, single point].
With `CN1CCN(c2nc3c(c(=O)[nH]2)CCN(Cc2cccc(Br)c2)CC3)CC1` the Potency was inconclusive: 39.8 µM [inhibitor, single point].
For `Cc1cccc(N2CCN(C(=O)c3cc4n(n3)CC(c3ccc(Cl)cc3)OC4)CC2)c1` (centres undefined), the Potency was inconclusive: 2.24 µM [inhibitor, partial curve, poor fit].
In the case of `CCN(Cc1cccnc1)C(=O)c1cc(-c2cnn(CC)c2)nc2cc(C)ccc12`, the Potency is reported as “inactive”.
For `Cc1ccc(N(C)S(=O)(=O)c2ccc3[nH]c4c(c3c2)CCCC4)cc1`, the Potency was inconclusive: 28.2 µM [inhibitor, single point].
With `COCCn1c(CNCc2ccc3c(c2)OCO3)nnc1C1CC(N)C1` (centres undefined) the Potency was inconclusive: 39.8 µM [inhibitor, single point].
In the case of `COc1ccc2ccc(OCc3nc(C(=O)N4CCNC(=O)C4C)co3)cc2c1` (centres undefined), the Potency is reported as inconclusive: 11.2 µM [inhibitor, partial curve, poor fit].
In the case of `COc1ccc(C(=O)NCc2nnc3ccc(-c4ccc(C)c(C)c4)nn23)cc1`, the Potency is reported as “inactive”.
In the case of `Cc1cn2nc(C(=O)N3CCN(C(=O)c4ccco4)CC3)cc2c(N2CCCC2)n1`, the Potency is reported as inconclusive: 25.1 µM [inhibitor, single point].
In the case of `C=CCNC(=O)CCc1ccc2c(c1)CN(C(=O)NCC)CCO2`, the Potency is reported as inconclusive: 31.6 µM [inhibitor, partial curve, poor fit].
For `COc1ccc(CCN2C(=O)c3[nH]nc(-c4ccccc4O)c3C2c2cccc(OC)c2)cc1` (centres undefined), the Potency was inconclusive: 39.8 µM [inhibitor, single point].
With `Cn1c(CCC(=O)NC2CCOC2)nc2cc(S(=O)(=O)N3CCCC3)ccc21` (centres undefined) the Potency was inconclusive: 6.31 µM [inhibitor, single point].
In the case of `Cn1ncc2c(C(=O)N3CCN(Cc4ccccc4)CC3)cc(-c3ccc(Cl)cc3Cl)nc21`, the Potency is reported as “inactive”.
For `CC(C)C1C(=O)Nc2ccc(S(=O)(=O)NCc3ccc(Cl)cc3)cc21` (centres undefined), the Potency was inconclusive: 39.8 µM [inhibitor, single point].
With `CN(C)C(=O)C1CN(C(=O)Nc2cc(F)c(F)c(F)c2)CC12CCOCC2` (centres undefined) the Potency was “inactive”.
With `COc1ccc(N2CC(c3noc(-c4cc(F)ccc4F)n3)CC2=O)cc1` (centres undefined) the Potency was inconclusive: 7.08 µM [inhibitor, partial curve].
In the case of `CC(C)S(=O)(=O)c1oc(-c2ccc(F)cc2)nc1S(=O)(=O)c1ccccc1`, the Potency is reported as inconclusive: 4.47 µM [inhibitor, full curve, poor fit].
With `O=c1cc(N2CCOCC2)oc2c(-c3ccc(F)c(Cl)c3)nccc12` the Potency was inconclusive: 50.1 µM [inhibitor, single point].
In the case of `CC(=O)c1cccc(NC(=O)CN2C(=O)NC3(CCCCC3)C2=O)c1`, the Potency is reported as inconclusive: 39.8 µM [inhibitor, single point].
With `COCC(=O)N1CCC2(CCCN(C(c3ccccc3)c3ccccc3)C2)CC1` the Potency was inconclusive: 28.2 µM [inhibitor, single point].
For `COCCNc1ncc(-c2cccc(OC)c2)c2c1OCC2`, the Potency was “inactive”.
In the case of `CCc1ccccc1NC(=O)Cn1ccn(-c2cc(C)cc(C)c2)c(=O)c1=O`, the Potency is reported as inconclusive: 5.01 µM [inhibitor, full curve].
With `CCN(c1ccccc1)C(CNS(=O)(=O)c1ccccc1)c1ccccc1` (centres undefined) the Potency was inconclusive: 0.501 µM [inhibitor, single point].
For `CN(C)c1ccc(CN2CCCC3(C2)C(=NC2CCCCC2)NC(=O)N3c2cc(F)cc(F)c2)cc1` (centres undefined), the Potency was inconclusive: 10 µM [inhibitor, partial curve, poor fit].
With `Cc1ncsc1C(=O)N1CCC2(CC1)OC(=O)N(Cc1ccccc1F)C2(C)c1ccccc1` (centres undefined) the Potency was “inactive”.
With `CC(C)Oc1ccc(C(=O)Nc2ccc3c(c2)CCCN3C(=O)c2cccs2)cc1` the Potency was inconclusive: 35.5 µM [inhibitor, single point].
With `Cc1cccc(CC(=O)N2CCC3(CCC(=O)N(CC4CC4)CC3)CC2)c1` the Potency was “inactive”.
For `CCC1CCCCN1CCCNC(=O)CN1C(=O)c2cccnc2Oc2ccc(Cl)cc21` (centres undefined), the Potency was “inactive”.
With `O=C(NCC1CC1)c1cccc(OC2CN(Cc3cc4ccccc4nc3Cl)C2)c1` the Potency was inconclusive: 2.24 µM [inhibitor, partial curve, poor fit].
For `Cc1nnc(NC(=O)CSc2nc3c([nH]c4ccccc43)c(=O)n2-c2ccccc2)s1`, the Potency was inconclusive: 39.8 µM [inhibitor, single point].
In the case of `Cc1ccc(Cl)cc1NC(=O)CN1C(=O)c2cccc3cccc1c23`, the Potency is reported as inconclusive: 2.24 µM [inhibitor, partial curve, poor fit].
In the case of `CCCN1C(=O)c2[nH]nc(-c3ccccc3O)c2C1c1ccc(OCc2ccccc2)c(OCC)c1` (centres undefined), the Potency is reported as inconclusive: 39.8 µM [inhibitor, single point].
With `COc1ccc(C(=O)N2CCCn3nc(C)c(-c4ccccc4C(C)C)c32)cc1` the Potency was inconclusive: 31.6 µM [inhibitor, partial curve, poor fit].
In the case of `Cn1ncc2c(C(=O)NCc3cccs3)cc(-c3cccnc3)nc21`, the Potency is reported as “inactive”.
In the case of `CN1CCc2nc(N3CCN(CC4CCCCC4)CC3)sc2C1`, the Potency is reported as inconclusive: 20 µM [inhibitor, partial curve, poor fit].
In the case of `O=C(Cc1ccccc1F)N1CC2CC(C1)[C@H]1CCCC(=O)N1C2` (some centres undefined), the Potency is reported as “inactive”.
In the case of `CC1=C[C@@H](CC#N)[C@H](C(C)C)C[C@H]1CC(=O)N1CCC(C)CC1`, the Potency is reported as “inactive”.
With `CN1[C@@H](CCC(=O)N2CCN(c3ccccn3)CC2)CNC(=O)[C@H]2NCC[C@H]21` the Potency was “inactive”.
With `O=C(Nc1ccccc1F)NC1CCN(Cc2cccc(-c3cccs3)c2)CC1` the Potency was inconclusive: 39.8 µM [inhibitor, single point].
For `CCOC(=O)c1c(NC(=O)COc2ccc(OC)cc2)sc(C(=O)N(CC)CC)c1C`, the Potency was inconclusive: 31.6 µM [inhibitor, single point].
With `CCOCC(=O)N1CCC2(CC1)C(OC)C(=O)N2CC1CC1` (centres undefined) the Potency was “inactive”.
With `O=C(NCc1ccc2c(c1)OCO2)C1CCCN(Cc2cccc(-c3cccs3)c2)C1` (centres undefined) the Potency was inconclusive: 39.8 µM [inhibitor, single point].
For `CCCC(=O)OCc1cnc(C)c2oc(=O)c(C(=O)Nc3ccc(F)cc3C)cc12`, the Potency was inconclusive: 25.1 µM [inhibitor, single point].
For `CC1=NS(=O)(=O)N(Cc2ccccc2)C=C1C(=O)OCc1nc(-c2ccc(F)cc2)no1`, the Potency was inconclusive: 7.08 µM [inhibitor, partial curve].
